According to the supplement of paper PMC3334620:
The full ranking holds about 33,000 sequences; the median of “E-score (-0.5 to 0.5)” is about -0.01, and the highest 2% start at about 0.26. Some of the results follow.

target: Ste12 (UniProt P13574); assay: PBM E-score (8-mer binding enrichment) (E-score (-0.5 to 0.5)); higher = stronger / more preferred TF binding; most listed sequences are background and not binding sites; conditions: protein concentration: 200 nM; construct: GST-DNA-binding domain
Method in brief: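 Masliner-normalised scans of fluorescent anti-GST signal were the basis for scoring. That signal came from GST-tagged yeast transcription factors applied at about 100-200 nM to double-stranded universal all-10-mer Agilent arrays on fresh or once-stripped slides. Each ungapped eight-base word, pooled with its reverse complement, received an E-score from the Universal PBM Analysis Suite.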

| Sequence | PBM E-score |
| --- | --- |
| ACGACAAC | -0.0246 |
| ATGTGAAC | -0.0405 |
| AGCGCTTA | -0.00253 |
| ACTGCCCG | 0.0357 |
| CTCAAACA | 0.341 |
| TAGGCCCA | -0.124 |
| AAAGTAGG | 0.115 |
| AGAGGCTG | -0.0601 |
| GTTGACTA | -2e-05 |
| ACATGTAA | 0.21 |
| GCCTTGGA | -0.0633 |
| AACTCTCT | 0.0217 |
| ACGTCCCT | -0.151 |
| ACGATAAA | 0.0718 |
| ATATCTGC | -0.214 |
| CTCTAGAC | -0.0352 |
| ACATACTA | 0.0324 |
| ATGAAAAG | -0.0787 |
| AGCCGCAT | -0.0773 |
| CTAAAGAA | -0.089 |
| ACCGCGGG | 0.234 |
| AACGCTTC | 0.175 |

| Sequence | PBM E-score |
| --- | --- |
| AACCACCA | 0.14 |
| ACCACAGA | -0.0877 |
| AAATCGTC | -0.00682 |
| AGAGCCAG | -0.227 |
| CATCTCGG | -0.0831 |
| ATATGACG | 0.0643 |
| ACTGCTTA | -0.0206 |
| CACCATTA | 0.091 |
| CGCTAATA | -0.0552 |
| GTTAAACA | 0.0213 |
| CTGCCTCA | -0.0649 |
| GATTAGCA | -0.0832 |
| TCGCAACA | 0.104 |
| ATTGACCA | 0.0873 |
| AAGTGGCA | -0.15 |
| GATGCCCC | -0.127 |
| AGCCCCGC | 0.00907 |
| CTGGGGCC | -0.2 |
| AAACAAGT | 0.149 |
| GCAATGGA | -0.0457 |
| ACTACCGG | -0.16 |
| AACAGGTG | -0.0353 |

| Sequence | PBM E-score |
| --- | --- |
| CCAAATCG | -0.126 |
| GGGGTACA | -0.236 |
| ACAATACC | 0.257 |
| CCTCAGAC | 0.107 |
| GCAATTCC | -0.035 |
| ACCACATC | 0.0724 |
| ATGTTGAG | 0.112 |
| AACTTTGG | -0.0675 |
| ACCACGTC | -0.148 |
| CTCTCGTA | -0.125 |
| AGCAGTAC | -0.0135 |
| GGGGAACC | -0.208 |
| TGGTCACA | -0.0244 |
| CTGACCAA | 0.164 |
| AGCAACCT | 0.0714 |
| GCACCCCC | -0.235 |
| ACCGTGAT | 0.0763 |
| ACCGGGTG | -0.0697 |
| ACCTGACG | -0.0165 |
| GTCTTCAA | 0.0115 |
| ATACATCA | 0.138 |
| ACTAGCGA | -0.123 |

| Sequence | PBM E-score |
| --- | --- |
| AAACGGCA | 0.145 |
| CCGCGGAG | 0.113 |
| CAGACATA | 0.0544 |
| CCTTCAGC | -0.154 |
| CTAGAATA | 0.171 |
| ATACTCGC | 0.117 |
| GACACTAC | 0.00286 |
| CGCGTAGC | -0.0904 |
| CCCTACGG | -0.177 |
| GATCACGA | 0.0145 |
| AATTCGCA | 0.0781 |
| CGAGCTCG | -0.00333 |
| GGCGTAGA | -0.00577 |
| CTAACACC | 0.044 |
| CAGAGGTA | 0.0373 |
| GGATCCAC | -0.0972 |
| GATGCCGC | -0.0688 |
| GGGCTCAA | -0.085 |
| ATTCGTAC | 0.0881 |
| AAGAGATA | -0.0137 |
